The campaign covered roughly 360,000 compounds. About 7,500 (2.1%) were called active. The shares of active, inactive and inconclusive entries below differ from those in the screen. Calls come from the whole dose curve; as a rule, active = well fitted cell-killing curve with a large enough effect; inconclusive = small, poorly fitted or top-dose-only effect, or effect the other way, or another doubt; inactive = no such curve, though single readings can be large or run the other way. No potency is given beside an inconclusive call; the fits are too rough.
Assay: qHTS for induction of synthetic lethality in tumor cells producing 2HG: qHTS for the HT-1080-IDH1KD cell line;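 for activity, negative = toxicity: 0% = DMSO wells and -100% = cell-free medium wells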
Conditions: HT-1080 IDH1 knockdown viability, ATP luminescence, 48 h; activity, negative = toxicity: at 46.1 µM (top of the series) unless noted
Method in brief: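 Knockdown cells (IDH1KD HT-1080) received compounds 2 h after plating at 750 cells/well and were kept 48 h at 37 °C in 5% FBS RPMI. A CellTiter-Glo luminescence read gave % activity for curve fitting.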
Potency is the fitted concentration of half-maximal effect; tags give direction and shape of the fitted curve.

| Compound | activity, negative = toxicity | Potency |
| --- | --- | --- |
| Cc1csc(NC(=O)CSc2nc(=O)n(CCN(C)C)c3c2CCCC3)n1 | inactive: 2.65% | – |
| CCOC(=O)c1c(C)c(C(=O)Nc2ccc3c(c2)OCCO3)c(C)n1CC | – | inconclusive [cytotoxic, single point] |
| c1ccc(OCCNc2nc(NCC3CC3)nc3cc(-c4ccccc4)sc23)cc1 | inconclusive: -31.1% [cytotoxic] | – |
| CC(C)(C)c1ccc(NC(=O)NCc2ccco2)cc1 | – | inconclusive [cytotoxic, single point] |
| O=C(CCc1ccccc1)Nc1cccnc1 | inactive: 21.9% | – |
| CCCOc1ccc(C(=O)NNC(=S)NC(=O)c2cc(-c3ccccc3)nc3ccccc23)cc1 | – | inconclusive [cytotoxic, partial curve] |
| O=C(Nc1ccc(-n2cnnn2)cc1)c1cn2ccccc2n1 | – | inconclusive [cytotoxic, full curve, poor fit] |
| Cc1cc(C)c2cc(C)c(SCC(=O)NCc3ccco3)nc2c1 | – | inconclusive [cytotoxic, single point] |
| CC(=O)Nc1ccc(/C(C)=N/Nc2nc(Nc3cccc4ccccc34)nc(N3CCOCC3)n2)cc1 | – | inconclusive [cytotoxic, partial curve] |
| Cc1c(Cl)cccc1NC(=O)COC(=O)c1c2c(nc3ccccc13)CCN(Cc1ccccc1)C2 | – | inconclusive [cytotoxic, single point] |
| Oc1ccccc1-c1nc(NCC2CCCO2)c2ccccc2n1 (stereo unspecified) | – | inconclusive [cytotoxic, partial curve] |
| Cc1c([N+](=O)[O-])cnc(Sc2ccccc2)c1[N+](=O)[O-] | – | inconclusive [cytotoxic, single point] |
| CCC(C)NCCCCOc1ccc(Cl)cc1C (stereo unspecified) | – | inconclusive [cytotoxic, partial curve] |
| CCc1ccc(-c2nc(CN3CCC(C(=O)NCCN(CC)c4ccccc4)CC3)c(C)o2)cc1 | inactive: 6.41% | – |
| CCN(CC)c1ccc(C(=C2C=CC(=[N+](CC)CC)C=C2)c2ccc(N(CC)CC)cc2)cc1 | – | active: 5.17 µM |
| O=C(CSc1ccccc1)Nc1nnc(/C=C/c2ccccc2)s1 | – | active: 18.4 µM |
| CCOc1ccc(CCN2C(=O)C(=O)N([C@@H](CC(C)C)CN3CCC[C@H]3CN3C(=O)C(=O)NC[C@@H]3Cc3ccccc3)C[C@@H]2Cc2ccc(O)cc2)cc1 | – | inconclusive [cytotoxic, single point] |
| CC(C)OC(=O)c1ccc(NCc2cc(O)ccc2O)cc1 | – | active: 18.4 µM |
| O=C1NC(Cc2ccccc2)c2nc3cc(F)c(F)cc3c(=O)n2-c2cc3ccccc3cc21 (stereo unspecified) | – | inconclusive [cytotoxic, single point] |
| Clc1cccc(CNc2ccn3nc(-c4cccc(Cl)c4)cc3n2)c1 | – | inconclusive [cytotoxic, single point] |
| C=CCN(C(=O)CCc1ccccc1OC)c1nc(-c2ccc(S(C)(=O)=O)cc2)cs1 | – | inconclusive [cytotoxic, full curve, poor fit] |
| c1cn2c(NC3CCCCC3)c(-c3ccc(SC4CCCCC4)cc3)nc2cn1 | – | inconclusive [cytotoxic, single point] |

| Compound | activity, negative = toxicity | Potency |
| --- | --- | --- |
| CCOC(=O)c1c(CSc2ccccc2)n(C)c2cc(Br)c(O)c(CN(C)C)c12 | – | inconclusive [cytotoxic, partial curve] |
| COCCNC(=O)C1(C)CCCN(Cc2ccc(C)c3ccccc23)C1 (stereo unspecified) | inactive: -16.5% | – |
| CC(C)(C)C(=O)NC(=S)NNC(=O)c1ccc(Cl)cc1Cl | – | active: 18.4 µM |
| COc1ccc(-c2n[nH]c(C)c2-c2cnn(-c3ccccc3)c2)c(O)c1C | – | inconclusive [cytotoxic, single point] |
| O=C(CN1CCN(c2ccccn2)CC1)N(c1ccccc1)c1ccc2ccccc2c1 | inactive: -2.9% | – |
| COc1ccccc1C(C)Nc1nc(-c2cccnc2)nc2ccccc12 (stereo unspecified) | – | inconclusive [cytotoxic, single point] |
| Cn1cccc1/C=N/n1c(-c2ccc(Cl)cc2)n[nH]c1=S | – | inconclusive [cytotoxic, single point] |
| Oc1ccc(NCc2ccccc2OCc2ccccc2)cc1 | – | inconclusive [cytotoxic, single point] |
| COc1ccc2c(c1)nc(NCCCO)n2Cc1ccccc1 | inactive: 6.62% | – |
| Cc1ccc(Nc2cc(C)nc(NCc3ccccc3)n2)cc1 | – | active: 18.4 µM |
| COc1ccc2c3c(cccc13)C(=O)CC2 | – | inconclusive [cytotoxic, single point] |
| CC(O)(c1cccc(F)c1)c1nc(-c2csc3ccccc23)cs1 (stereo unspecified) | – | inconclusive [cytotoxic, single point] |
| O=c1cc(CN2CCN(C/C=C/c3ccccc3)CC2)c2cc(O)c(-c3ccccc3)cc2o1 | inactive: 15.6% | – |
| CCN1CCc2c(OCC(=O)N3N=C(c4cccs4)CC3c3ccc(F)cc3)cccc2C1=O (stereo unspecified) | – | inconclusive [cytotoxic, partial curve] |
| Cc1cnc(NC(=O)CSc2ncc(-c3ccccc3)n2Cc2ccco2)s1 | – | inconclusive [cytotoxic, single point] |
| Cc1nc2c(OCC(=O)C(C)(C)C)cccn2c1N(C)Cc1cccs1 | – | inconclusive [cytotoxic, single point] |
| Cn1c(O)c(/C=N/NC(=O)c2cc3ccccc3cc2O)c2ccccc21 | – | inconclusive [cytotoxic, full curve] |
| CCN(CC)CCNC(=O)c1cc2c(-c3cccc(OC)c3)nn(C)c2s1 | – | inconclusive [cytotoxic, single point] |
| Cc1cccc(C)c1NC(=O)CCCSc1nnc(-c2ccc(Cl)cc2)n1-c1ccccc1 | – | inconclusive [cytotoxic, single point] |
| CCOC(=O)NC(=O)C(/C=N/c1sccc1C(=O)OC)=C(\C)O | – | inconclusive [cytotoxic, single point] |
| CCOc1ccc(-c2cc(C(=O)N3CCN(c4ccccn4)CC3)c3ccccc3n2)cc1 | – | inconclusive [cytotoxic, single point] |
| CC1=CC(C)(C)NC(=S)N1c1ccc([N+](=O)[O-])cc1 | – | inconclusive [cytotoxic, partial curve, poor fit] |

| Compound | activity, negative = toxicity | Potency |
| --- | --- | --- |
| COc1ccc(C(=O)NC(=O)CSc2nnc(-c3ccco3)n2-c2ccccc2)cc1 | – | inconclusive [cytotoxic, full curve] |
| O=C(NNC(=S)Nc1cccc(Cl)c1)c1ccccc1OC(F)F | – | inconclusive [cytotoxic, single point] |
| CCCCN(C)C(=O)CSc1nc(NCc2ccc(OC)cc2)c2ccccc2n1 | – | inconclusive [cytotoxic, single point] |
| COc1ccc(-c2sc3ccc(OC)cc3c2C#Cc2cncn2C)cc1 | – | inconclusive [cytotoxic, single point] |
| CC(O)(CS(=O)(=O)Cc1ccccc1)C(=O)Nc1ccc(C(F)(F)F)cc1 (stereo unspecified) | – | inconclusive [cytotoxic, single point] |
| COc1ccc(-c2csc(NC(=S)NC(=O)/C=C/c3ccco3)n2)cc1OC | – | active: 18.4 µM |
| O=C(NCc1ccco1)c1ccc(S(=O)(=O)N2CCCc3ccccc32)cc1 | – | inconclusive [cytotoxic, single point] |
| COc1ccccc1NC(C)C(=O)N/N=C/c1ccccc1OCc1cccc(Br)c1 (stereo unspecified) | – | inconclusive [cytotoxic, single point] |
| COc1ccc(-c2n(CC(=O)OC3CC(C)CCC3C(C)C)c3ccccc3[n+]2C)cc1 (stereo unspecified) | – | active: 5.8 µM |
| CCOC(=O)c1ccc(N(CCC2CO2)S(=O)(=O)c2ccc(C)cc2)cc1 (stereo unspecified) | inactive: -5.35% | – |
| Cc1ccc(OCCSCc2nnc(NC(=O)Nc3cccc(Cl)c3)s2)cc1 | – | inconclusive [cytotoxic, single point] |
| CCCCCCCCN1C(=O)[C@H](CC(=O)NCC23CC4CC(CC(C4)C2)C3)C[C@@]2(C(=O)OCC)CCC=C12 | – | inconclusive [cytotoxic, single point] |
| Cc1ccc(N(C)S(=O)(=O)c2cccc(C(=O)N(C)Cc3cnn(-c4ccccc4)c3)c2)cc1 | – | inconclusive [cytotoxic, single point] |
| CC12CN3CC(C)(CN(C1)C3c1ccc(F)cc1)C2 (stereo unspecified) | inactive: -5.2% | – |
| Cc1ccc2c(c1)c1nnc(SCC(=O)N3CCCc4ccccc43)nc1n2CC(=O)O | inactive: 22% | – |
| NS(=O)(=O)c1ccc(CCNC(=O)Nc2ccc(Cl)c(Cl)c2)cc1 | – | inconclusive [cytotoxic, partial curve] |
| CCN(CC)S(=O)(=O)c1cc([N+](=O)[O-])ccc1NNC(=O)Nc1ccc(Cl)c(Cl)c1 | – | active: 4.11 µM |
| CCOC(=O)c1c(-c2ccccc2)csc1NC(=O)c1cccc(N2C(=O)CCC2=O)c1 | – | inconclusive [cytotoxic, single point] |
| CCOc1ccc(CCNC(=O)c2ccc3c(=O)[nH]c4c(C(=O)NC(C)C)sc(=S)n4c3c2)cc1 | inactive: 0.612% | – |
| O=[N+]([O-])c1cc(S(=O)(=O)NCCN2CCOCC2)ccc1Sc1nnnn1-c1ccccc1 | – | inconclusive [cytotoxic, single point] |
| CC(=O)c1c(C(C)=O)c(C)n(NC(=O)c2ccccc2Cl)c1C | inactive: -9.6% | – |
| CCCCC(=O)NC(c1ccco1)c1cc(Cl)c2cccnc2c1O (stereo unspecified) | – | active: 9.2 µM |
